# Data published in PubChem BioAssay AID485294 (National Center for Advancing Translational Sciences (NCATS), 2010).
# The campaign covered roughly 370,000 compounds. About 150 (0.041%) were called active. The inconclusive results got no clear call from the source; some entries with a clear call stand among them for comparison. The call rests on the fitted dose curve; in most records, active means well fitted inhibition curve with a large enough effect; inconclusive means small, poorly fitted or top-dose-only effect; inactive means flat fitted curve, though single readings scatter. Potencies of inconclusive entries are left out as doubtful fits.
# Biological target: Beta-lactamase (Escherichia coli (strain K12)) (UniProt P00811)
# Test: qHTS Inhibitors of AmpC Beta-Lactamase (assay with detergent); further: nearly all actives have a fitted effect of over 25% in size;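 on activity change, negative = inhibition: 0% = no-compound wells and -100% = no-enzyme wells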
# Conditions: AmpC hydrolysis of nitrocefin, absorbance 480 nm, 0.01% Triton; activity change, negative = inhibition: at 114 µM (top of the series)
# Outline: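 20 mM phosphate pH 7.0 + 0.01% (detergent screen) or 0.0001% Triton X-100; 5.3 nM AmpC reagent; cpd preinc 15 min RT; nitrocefin (800 uM stock) to start; A480 q20 s × 4 min; Activity was normalised to no-enzyme and no-compound control wells.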
# Potency means the concentration at half of the fitted maximal effect; tags describe the fitted curve by direction and shape.
# Sequence of UniProt P00811 (P00811 whole entry, looked up): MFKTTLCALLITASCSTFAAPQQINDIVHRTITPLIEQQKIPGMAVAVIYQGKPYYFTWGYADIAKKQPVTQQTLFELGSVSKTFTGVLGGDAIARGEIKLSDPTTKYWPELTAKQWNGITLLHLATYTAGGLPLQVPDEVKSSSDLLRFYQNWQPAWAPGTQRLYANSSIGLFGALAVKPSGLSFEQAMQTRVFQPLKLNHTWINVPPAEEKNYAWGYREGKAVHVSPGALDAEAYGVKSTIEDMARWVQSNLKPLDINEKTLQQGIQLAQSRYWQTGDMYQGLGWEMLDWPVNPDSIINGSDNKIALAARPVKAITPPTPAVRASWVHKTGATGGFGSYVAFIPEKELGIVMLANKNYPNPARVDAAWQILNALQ
SMILES,"activity change, negative = inhibition",Potency
CNC(=S)N(Cc1cc2cc(C)ccc2n2nnnc12)CC(C)(C)CN(C)C,inactive: -2.57%,
CCOc1ccccc1NC(=O)N1CCN(S(=O)(=O)c2ccc3c(ccn3C)c2)CC1,inactive: 6.86%,
CCOC(=O)CN(C(=O)CSc1nnc2c(n1)[nH]c1ccc(OC)cc12)c1ccc(F)cc1,,"inconclusive [inhibitor, full curve, poor fit]"
COc1cccc(NC(=O)Cc2csc(NC(=O)Nc3ccccc3OC)n2)c1,,"inconclusive [inhibitor, full curve, poor fit]"
COC(=O)c1scc(C)c1NC(=O)Cc1ccccc1,,"inconclusive [inhibitor, partial curve, poor fit]"
CCNC(=O)n1nccc1C(C)Oc1ccc(Cl)cc1 (configuration not stated),inactive: -1.58%,
CCOC(=O)C1(CCc2ccccc2)CCN(C(=O)C2=C(C)OCCO2)CC1,inactive: -5.45%,
O=C(NCc1ccccc1)C(=O)NCC(c1ccco1)N1CCN(c2ccccc2F)CC1 (configuration not stated),,"inconclusive [inhibitor, full curve]"
COc1ccc(-c2ccc(=O)n(Cc3cc(=O)n4ccccc4n3)n2)cc1,,"inconclusive [inhibitor, full curve, poor fit]"
COCCNCC(O)CON=C1c2ccccc2-c2ccccc21 (configuration not stated),,"inconclusive [inhibitor, full curve, poor fit]"
Clc1ccc(OCCOCCN2CCCCC2)c(Br)c1,inactive: 2.58%,
Cc1cccnc1N1C(=O)c2ccc(C(=O)O)cc2C1=O,,"inconclusive [inhibitor, full curve, poor fit]"
O=c1[nH]c(=O)n(C2C[C@H](O)[C@@H](CO)O2)cc1C(F)(F)F (some centres not stated),,"inconclusive [inhibitor, full curve, poor fit]"
O=C(CSc1ccc2nnc(-c3cccs3)n2n1)N1CCCC1,,"inconclusive [inhibitor, full curve, poor fit]"
CCc1cccc(C)c1NC(=O)CO/N=C(\N)CC(=O)NC1CCCCC1,,"inconclusive [inhibitor, full curve, poor fit]"
Cc1cc(NC(=O)COC(=O)c2ccc(S(=O)(=O)C(F)F)cc2)n(-c2ccccc2)n1,,"inconclusive [inhibitor, partial curve]"
O=C(NCCOc1ccccc1)C1CCC(=O)N(Cc2ccc(Cl)cc2)C1 (configuration not stated),inactive: 1.86%,
O=C(NN1C(=O)C2C3CCC(O3)C2C1=O)c1ccco1 (configuration not stated),,"inconclusive [inhibitor, partial curve]"
Cc1cc(=O)oc2cc(NC(=S)NCc3ccccn3)ccc12,inactive: -8.43%,
O=S(=O)(c1ccccc1)c1nc(-c2ccco2)oc1NCc1ccco1,,"inconclusive [inhibitor, partial curve]"
O=C1c2ccccc2C(=O)N1CC1c2ccccc2CCN1C(=O)N1CCOCC1 (configuration not stated),,"inconclusive [inhibitor, full curve, poor fit]"
CCN(c1ccc(OC)cc1)c1ncnc2nc[nH]c12,,"inconclusive [inhibitor, partial curve]"
O=[N+]([O-])c1ccc(Nc2c3ccccc3nc3ccccc23)cc1,,"inconclusive [inhibitor, single point]"
O=C(O)c1cn(C2CCCCC2)c2ccccc2c1=O,inactive: 4.18%,

SMILES,"activity change, negative = inhibition",Potency
COC(=O)c1c(NC(=O)Cc2ccc(OC)c(S(=O)(=O)N3CCOCC3)c2)sc(C)c1C,inactive: -13.9%,
CN(CC(O)CON=C1c2ccccc2-c2ccccc21)S(=O)(=O)c1ccc(Br)cc1 (configuration not stated),,"inconclusive [inhibitor, partial curve]"
CCOc1ccc(CNn2cnnc2)cc1,,"inconclusive [inhibitor, partial curve, poor fit]"
COc1ccc(OC)c(N/C(C)=C/C(=O)c2ccccc2)c1,,"inconclusive [inhibitor, full curve, poor fit]"
CCOc1ccccc1N(C)C(=O)Cn1nc(Cc2cccnc2)c2ccccc2c1=O,inactive: 4.79%,
Cc1cc(C(=O)CS(=O)(=O)c2ccc(Cl)cc2)cc(C)c1O,inactive: 4.72%,
C=C1c2ccccc2NC(=O)N1c1ccc(OC)cc1,inactive: 2.05%,
O=[N+]([O-])c1cccc(C(=S)N2CCN(c3ccccc3F)CC2)c1,,"inconclusive [inhibitor, full curve, poor fit]"
CS(=O)(=O)NCc1ccccc1Br,inactive: -1.71%,
O=C(C1=C[C@H](c2ccc3c(c2)OCO3)C[C@H](OCCCCO)O1)N1CCOCC1,inactive: 3.64%,
CCOc1ccccc1Nc1nc(-c2sc(NC(=O)c3ccc([N+](=O)[O-])cc3)nc2C)cs1,inactive: 5.36%,
CCN(c1cc(C)cc(C)c1)S(=O)(=O)c1nnc(NC(=O)c2cccc(F)c2)s1,inactive: 21.7%,
O=C(Nc1nnc(C(F)(F)F)s1)C1COc2ccccc2O1 (configuration not stated),inactive: -11%,
COc1cc(NC(=O)CNc2cccc(S(=O)(=O)N3CCOCC3)c2)cc(OC)c1,,"inconclusive [inhibitor, full curve]"
CN1CCN(NC(=O)NC2CCCCC2)CC1,,"inconclusive [inhibitor, full curve, poor fit]"
O=C(CNc1cccc2ccccc12)N/N=C/c1ccc([N+](=O)[O-])cc1,,"inconclusive [inhibitor, partial curve]"
O=C(COC(=O)c1ccc(Br)o1)NC1CCCc2ccccc21 (configuration not stated),,"inconclusive [inhibitor, partial curve]"
COCCCNC(=S)NCCc1ccc(F)cc1,inactive: -0.773%,
N/C(=N\OC(=O)CC1CCCCC1)c1cccc(Br)c1,inactive: -8.34%,
O=C(CCCC(=O)OCC(=O)c1cccs1)Nc1ccc(Oc2ccccc2)cc1,,"inconclusive [inhibitor, partial curve]"
COC(=O)c1cc2c(s1)-c1ccccc1OC2,,"inconclusive [inhibitor, full curve, poor fit]"
CC1Cc2ccccc2N1C(=O)/C=C/c1cccc(F)c1 (configuration not stated),,"inconclusive [inhibitor, full curve, poor fit]"
CN(CC(=O)Nc1ccccc1Br)C(=O)CNC(=O)C1CCCCC1,inactive: 5.56%,
